According to ChEMBL document CHEMBL4888484, “Replenishing the malaria drug discovery pipeline: Screening and hit evaluation of the MMV Hit Generation Library 1 (HGL1) against asexual blood stage Plasmodium falciparum ,using a nano luciferase reporter read-out” (2022):
Hit rate of the full screen: of about 150,000 compounds, about 540 (0.36%) showed an effect of 50% or more. The list shows a part of the results.

Each compound was assayed on Plasmodium falciparum (assay: Primary screen in NF54 nanoGlo assay, in single point, at 2uM, 72h; a lower Z score goes with more inhibition). Settings: timepoint 72 hour.
Type: functional, Erythrocyte

Row | Structure (SMILES) | % Inhibition | Z score
1 | C[C@]12C(=O)N(C3CCCCC3)CC(=O)N1CCc1c2[nH]c2ccccc12 | 1% | -0.17
2 | CCC#CCN1CCC[C@H](CNC(=O)c2cncnc2C)C1 | -12% | 1.48
3 | COc1ccccc1N1CCN(C(=O)C[C@@H]2CCNC[C@@H]2Cc2cc(C(C)(C)C)on2)CC1 | 28% | -3.19
4 | Cc1conc1CNC(=O)CCCNC(=O)OC(C)(C)C | 6% | -0.64
5 | Cc1cc(C(=O)NCC2CCC(C(=O)N(C)C)O2)co1 (centres undefined) | -3% | 0.43
6 | c1csc(CCN2CCC[C@H](Cn3cncn3)C2)c1 | 11% | -1.46
7 | CNc1ncc(C(=O)N2CCC[C@H](C(=O)c3cc(C)c(OC)c(C)c3)C2)cn1 | 4% | -0.72
8 | CCc1cnc(C)nc1N(C)C[C@H]1CCCCN1C | 8% | -0.96
9 | Cc1nnc(N2CCN(C(=O)C(C)C)CC2)c(C#N)c1C | -4% | 0.54
10 | CC(=O)Nc1cccnc1NC(=O)c1cccn1C1CC1 | -1% | 0.09
11 | CC(C)c1cc(NCCCOc2cccnc2)nc(N)n1 | -18% | 1.97
12 | COc1ccc(Cc2n[nH]c(CCc3cnn(C)c3)n2)cc1 | -9% | 1.71
13 | CCC1=C(c2ccc(C)cc2)S(=O)(=O)N=C1N1CCC(C(=O)NCCN2CCCC[C@@H]2C)CC1 | 53% | -6.49
14 | C[C@@H](C(=O)NCCOCCO)n1cc(Cl)cn1 | 5% | -0.66
15 | COC[C@H](C)NC(=O)c1ccc(C(F)(F)F)cc1 | 2% | -0.19
16 | Cn1cc(C(=O)O)c(-c2ccc(NS(=O)(=O)c3ccccc3OC(F)(F)F)cc2)n1 | -10% | 2.07
17 | CC1CC(N2CCC(CN(C)C(=O)OC(C)(C)C)CC2)C(=O)O1 (centres undefined) | -8% | 0.77
18 | CCCc1cnc(C)nc1N1CCC[C@H](c2nnc(CN(C)C)n2C)C1 | -6% | 1.15
19 | COCCC1(CNC(=O)NC2CCCCC2OC)CC1 (centres undefined) | -14% | 1.85
20 | O=C(Nc1ccn(CC(F)(F)F)n1)N1CC[C@H](CN2CCCC2)C1 | -11% | 1.44
21 | Cc1cc(-n2nc(CCc3ccccc3)nc2[C@H]2CCOC2)ccn1 | 2% | -0.16
22 | COCCNC(=O)N1CCCn2nc(-c3cccc(OC)c3)cc2C1 | -5% | 0.53
23 | COCCN(CCOc1ccccc1F)S(=O)(=O)c1ccc(F)cc1F | -10% | 1.4
24 | Cc1nc(Cn2nnc(NS(=O)(=O)N3CCC4(CCCCC4)CC3)c2C)no1 | -8% | 1.15
25 | O=S(=O)(NCC1(O)CCC1)c1ccc(Oc2cccc3cccnc23)cc1 | 5% | -0.69
26 | O=C(NC[C@@H](c1ccc(F)cc1)N1CCCC1)c1cn(C2CCCCC2)nn1 | 12% | -1.55

Row | Structure (SMILES) | % Inhibition | Z score
27 | Cc1cccnc1CCNC(=O)N1CCCC[C@H]1c1cccc(F)c1 | 2% | -0.37
28 | Cc1cnccc1CN(C)c1nc(-c2ccncc2)nc2c1c(C)nn2C | -8% | 1.51
29 | CC[C@H](Oc1cccc(C)c1)C(=O)NCc1ccnc(C)n1 | -9% | 1.27
30 | CCc1cc(C(=O)N2CCC[C@@]3(CCC(=O)N(Cc4cnc(C)cn4)C3)C2)[nH]n1 | -18% | 1.95
31 | C/C=C(\C)CN1CC[C@H](CNC(=O)c2onc3ccccc23)C1 | -5% | 0.63
32 | COc1ccc(-c2cc(-c3ccc(C)cc3)nc(N3CCC(C)CC3)n2)cc1 | 22% | -2.85
33 | Cn1c(=O)n(C)c2cc([C@@H](O)COc3ccc(CNCc4ccccc4)cc3)ccc21 | -16% | 1.45
34 | COc1ccc(N2C(=O)CN(Cc3ccc(OC)c(O)c3)CC23CCCC3)cc1 | 14% | -1.81
35 | CCC(CO)NC(=O)C(C)N1C(C)CCC1C (centres undefined) | -6% | 0.72
36 | Cc1ccc([C@@H](NC(=O)CCc2cc(C(C)(C)C)c(O)c(C(C)(C)C)c2)C(=O)Nc2ccc(C(C)C)cc2)cc1 | -17% | 3
37 | O=c1nc(NCCc2c[nH]c3ccccc23)cn[nH]1 | 1% | -0.09
38 | CN(Cc1ccc(CN)cc1)C(=O)OC(C)(C)C | -8% | 0.86
39 | O=C(Cn1nc(N2CCOCC2)c2ccccc2c1=O)N1CCN(c2ccccc2)CC1 | -7% | 1.07
40 | Cc1ccc(S(=O)(=O)N2CCN(c3cc(Oc4cccc(F)c4)ncn3)C[C@@H]2C)cc1 | 3% | -0.57
41 | COCCNC(=O)COCC(=O)Nc1ccccc1 | -3% | 0.51
42 | COCCN1CCN(c2nccc(N3CCCC(C)(C)C3)n2)C[C@@H]1C | 3% | -0.54
43 | CC1(C)[C@H](Cc2cc(-c3ccccc3)on2)C[C@@H]1NS(C)(=O)=O | -8% | 1.25
44 | COc1ccc(N2CCN(C(=O)[C@H](C)NC(=O)c3cc4ccccc4[nH]3)CC2)cc1 | -2% | 0.3
45 | C[C@@H](CC(=O)NCCCN1CCOCC1)CC(=O)Nc1cccc(Cl)c1Cl | -11% | 2.09
46 | Cc1cc(C)cc(OCC(=O)NCC(C)C)c1 | -13% | 1.68
47 | Cc1nc(N)nc(N2CCC[C@H](N(C)C)C2)c1Cl | -8% | 0.87
48 | CCC(NC(C)C1CCCC1)C(=O)N1CCOCC1 (centres undefined) | -7% | 1.04
49 | COCCN1CCC(c2c(-c3ccccc3)ncn2C2CC=CC2)CC1 | 15% | -1.92
50 | O=C(O)[C@H](Cc1ccccc1)NC(=O)[C@@H]1CCCN1C(=O)[C@H](Cc1ccccc1)n1c(=O)[nH]c2ccccc2c1=O | -4% | 0.58
51 | N#Cc1cccc(NC(=O)C2CCN(S(=O)(=O)c3ccc4c(c3)CCCN4C(=O)C3CCC3)CC2)c1 | -18% | 3.38
52 | Cc1ccc(-n2cccn2)c(-c2nccn2CCc2c[nH]c(=O)[nH]c2=O)c1 | -5% | 0.45
